This note sets out measurements from publication PMC4336329 (PLoS ONE, 2015).

The campaign covered roughly 310,000 compounds. About 2,200 (0.71%) showed an effect of 50% or more. The effect is printed as a negative number. The list shows a part of the results.

The target of the assay is human ether-à-go-go-related gene (hERG) potassium channel (human, UniProt Q12809). In words: primary screen, population patch clamp on CHO cells stably expressing hERG.
human ether-à-go-go-related gene (hERG) potassium channel, sequence (Q12809 whole entry, looked up): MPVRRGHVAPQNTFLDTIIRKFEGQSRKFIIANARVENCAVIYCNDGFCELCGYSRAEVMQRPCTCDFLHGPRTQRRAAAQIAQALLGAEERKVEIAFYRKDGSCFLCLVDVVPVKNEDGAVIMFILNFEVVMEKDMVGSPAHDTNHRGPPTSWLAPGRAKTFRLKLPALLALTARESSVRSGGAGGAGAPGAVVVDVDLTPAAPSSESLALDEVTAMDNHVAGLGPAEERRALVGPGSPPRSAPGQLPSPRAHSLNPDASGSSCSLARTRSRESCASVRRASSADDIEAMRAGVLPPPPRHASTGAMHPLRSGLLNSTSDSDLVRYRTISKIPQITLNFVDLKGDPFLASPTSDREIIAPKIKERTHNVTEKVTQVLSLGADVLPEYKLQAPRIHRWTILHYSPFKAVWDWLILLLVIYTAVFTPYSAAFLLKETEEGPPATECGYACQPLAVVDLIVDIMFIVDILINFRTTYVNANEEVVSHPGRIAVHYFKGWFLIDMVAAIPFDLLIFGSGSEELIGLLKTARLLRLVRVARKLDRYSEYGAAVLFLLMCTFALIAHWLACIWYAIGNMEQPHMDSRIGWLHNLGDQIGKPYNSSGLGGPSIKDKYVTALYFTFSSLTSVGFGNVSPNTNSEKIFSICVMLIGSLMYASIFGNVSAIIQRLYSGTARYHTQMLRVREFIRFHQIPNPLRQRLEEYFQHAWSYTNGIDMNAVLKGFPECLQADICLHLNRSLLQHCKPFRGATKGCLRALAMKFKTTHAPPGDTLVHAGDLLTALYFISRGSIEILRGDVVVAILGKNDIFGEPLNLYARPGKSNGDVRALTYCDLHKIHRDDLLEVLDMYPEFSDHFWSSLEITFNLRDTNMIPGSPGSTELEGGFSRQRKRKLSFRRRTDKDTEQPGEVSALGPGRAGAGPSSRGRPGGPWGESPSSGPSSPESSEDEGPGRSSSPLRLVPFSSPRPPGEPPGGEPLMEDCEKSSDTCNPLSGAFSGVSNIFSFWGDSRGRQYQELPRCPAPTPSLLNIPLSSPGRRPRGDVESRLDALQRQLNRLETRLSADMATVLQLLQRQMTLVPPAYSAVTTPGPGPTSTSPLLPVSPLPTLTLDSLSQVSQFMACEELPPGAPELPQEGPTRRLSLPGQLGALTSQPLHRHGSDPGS
`Cn1cnc2cc(NCc3ccc(Cl)cc3)ccc21`: the “hERG current change (%, negative = inhibition) at 1uM” value is 5.06%. On to `CCOC(=O)c1[nH]c(=O)[nH]c1CN(Cc1ccco1)Cc1[nH]c(=O)[nH]c1C(=O)OCC`, for which the “hERG current change (%, negative = inhibition) at 1uM” value was -11.2%. Take `CC(C)c1ccccc1NC(=O)COC(=O)c1cc(=O)[nH]c(=O)[nH]1`: the “hERG current change (%, negative = inhibition) at 1uM” value amounted to 5.39%. The figure for `COC(=O)C1=C(C)Nc2[nH]c(=S)[nH]c(=O)c2C1c1ccc(OC)cc1` (stereo not shown) is 18.2%; for `COc1cc(OC)cc(C(=O)N2CCN(c3ccccn3)CC2)c1` it is 9.99%; for `Cc1cccc(N2CCc3c2nc2ccccc2c3N)c1.O=C(O)C(=O)O` it is -2.87%. Then `COc1cc(OC)c2ccc(=O)oc2c1C(CCN1CCCC1)c1ccc(N(C)C)cc1` (stereo not shown), with 6.42%; and `COc1ccccc1CNC(=O)c1cc2c(=O)[nH]c3ccccc3c2n1C`, with 10.5%; and `O=C(c1cc2c(s1)-c1ccccc1S(=O)(=O)C2)N1CCCC1`, with 3.64%. The figure for `COc1ccc(NC(=O)CSC2=NCCN2)cc1.Cl` is 4.54%; for `CN1C=CC=C/C1=C1/SC(=S)N(Cc2ccccc2)C1=O` it is 11.1%. As to `CCCCCCCn1ccc(O)c(CC(=O)OC)c1=O`, the “hERG current change (%, negative = inhibition) at 1uM” value is on record as 7.72%.

With `O=C(Cc1ccccc1)Nc1ccccc1N1CCN(c2ccccc2)CC1`, the “hERG current change (%, negative = inhibition) at 1uM” value is 11.6%.

Regarding `O=C(CCCC(=O)N(c1cccc(F)c1)C(C(=O)NC1CCCC1)c1ccc(O)cc1)Nc1ccccn1` (stereo not shown), the “hERG current change (%, negative = inhibition) at 1uM” value was determined as 10.1%. The figure for `COc1cccc(C(=O)COc2ccc3c(C)c(Cc4ccccc4)c(=O)oc3c2C)c1` is -1.99%; for `COc1ccc(/C=C/C(=O)OC(C)C(=O)c2ccccc2)cc1OC` (stereo not shown) it is -4.85%.

`O=C1CC(Nc2ccccc2)C(=O)N1CCc1ccccc1` (stereo not shown): the “hERG current change (%, negative = inhibition) at 1uM” value was determined as 19.4%. `CC(=O)N[C@@H](Cc1c[nH]c2ccccc12)C(=O)NC1CCCc2ccccc21` (stereo partly shown): the “hERG current change (%, negative = inhibition) at 1uM” value stood at 19.5%. Take `Br.COC(=O)CN1C2=NCCCN2c2ccccc21`: the “hERG current change (%, negative = inhibition) at 1uM” value is given as -3.47%. With `CC1CCN(C(=O)CC(NC(N)=O)c2ccccc2Cl)CC1` (stereo not shown), the “hERG current change (%, negative = inhibition) at 1uM” value is given as 13.8%.

As for `O=C(Nc1nnc2n1CCS2)c1ccc(Br)o1`, the “hERG current change (%, negative = inhibition) at 1uM” value was 14.6%. The figure for `COC(=O)c1ccc(CON2C(=O)c3ccccc3C2=O)cc1` is 6.87%; for `COC(=O)Cc1c(C(=O)OC)nnn1-c1ccc(OC)cc1` it is 14.5%. Consider `COc1ccc(C(=O)Nc2ccc(S(=O)(=O)N3CCOCC3)cc2)cc1OC`, for which the “hERG current change (%, negative = inhibition) at 1uM” value is -2.02%.

On to `CCC(C)[C@H](NC(=O)NCCC1=CCCCC1)C(=O)O` (stereo partly shown), for which the “hERG current change (%, negative = inhibition) at 1uM” value is recorded as 0.285%.
